Laboratory results: the supplement of paper PMC8728848
This is one part of the list.

What was measured:
Assay in all cases: glycan array binding signal (z-score within array); higher = stronger binding
Conditions in all cases: glycan notation: IUPAC condensed, linker removed
[1] = target: Gal(b1-4)GlcNAc(a1-6)Gal(b1-4)GlcNAc
Outline: (§1)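 Arrays were curated from the Consortium for Functional Glycomics database, 3228 in total, and kept only where the protein sequence was available. Binding is expressed as a within-array Z-score. This score was averaged across arrays of the same protein sequence at different concentrations or buffers and across linkers, and negative values can be read as non-binding.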

[2] = target: Gal(b1-4)GlcNAc(b1-2)Man(a1-3)Man(b1-4)GlcNAc(b1-4)GlcNAc
Outline: as §1

[3] = target: Gal(b1-4)GlcNAc(b1-2)Man(a1-3)[Gal(b1-4)GlcNAc(b1-2)Man(a1-6)]Man(b1-4)GlcNAc(b1-4)GlcNAc
Outline: as §1

[4] = target: Gal(b1-4)GlcNAc(b1-2)Man(a1-3)[Gal(b1-4)GlcNAc(b1-2)Man(a1-6)]Man(b1-4)GlcNAc(b1-4)[Fuc(a1-6)]GlcNAc
Outline: as §1

[5] = target: Gal(b1-4)GlcNAc(b1-2)Man(a1-3)[GlcNAc(b1-2)Man(a1-6)]Man(b1-4)GlcNAc(b1-4)GlcNAc
Outline: as §1

[6] = target: Gal(b1-4)GlcNAc(b1-2)Man(a1-3)[Man(a1-6)]Man(b1-4)GlcNAc(b1-4)GlcNAc
Outline: as §1

[7] = target: Gal(b1-4)GlcNAc(b1-2)Man(a1-6)Man(b1-4)GlcNAc(b1-4)GlcNAc
Outline: as §1

[8] = target: Gal(b1-4)GlcNAc(b1-2)Man(a1-6)[GlcNAc(b1-2)Man(a1-3)]Man(b1-4)GlcNAc(b1-4)GlcNAc
Outline: as §1

[9] = target: Gal(b1-4)GlcNAc(b1-2)Man(a1-6)[Man(a1-3)]Man(b1-4)GlcNAc(b1-4)GlcNAc
Outline: as §1

[10] = target: Gal(b1-4)GlcNAc(b1-2)[Gal(b1-4)GlcNAc(b1-4)]Man(a1-3)[Gal(b1-4)GlcNAc(b1-2)Man(a1-6)]Man(b1-4)GlcNAc(b1-4)GlcNAc
Outline: as §1

[11] = target: Gal(b1-4)GlcNAc(b1-2)[Gal(b1-4)GlcNAc(b1-4)]Man(a1-3)[Gal(b1-4)GlcNAc(b1-2)[Gal(b1-4)GlcNAc(b1-6)]Man(a1-6)]Man(b1-4)GlcNAc(b1-4)GlcNAc
Outline: as §1

[12] = target: Gal(b1-4)GlcNAc(b1-3)Gal(b1-3)GlcNAc
Outline: as §1

[13] = target: Gal(b1-4)GlcNAc(b1-3)Gal(b1-4)Glc
Outline: as §1

[14] = target: Gal(b1-4)GlcNAc(b1-3)Gal(b1-4)GlcNAc
Outline: as §1

[15] = target: Gal(b1-4)GlcNAc(b1-3)Gal(b1-4)GlcNAc(b1-3)Gal(b1-4)GlcNAc
Outline: as §1

[16] = target: Gal(b1-4)GlcNAc(b1-3)Gal(b1-4)[Fuc(a1-3)]GlcNAc(b1-3)Gal(b1-4)[Fuc(a1-3)]GlcNAc
Outline: as §1

[17] = target: Gal(b1-4)GlcNAc(b1-3)GalNAc
Outline: as §1

[18] = target: Gal(b1-4)GlcNAc(b1-3)[Gal(b1-4)GlcNAc(b1-6)]Gal(b1-4)GlcNAc
Outline: as §1

[19] = target: Gal(b1-4)GlcNAc(b1-3)[Gal(b1-4)GlcNAc(b1-6)]GalNAc
Outline: as §1

[20] = target: Gal(b1-4)GlcNAc(b1-3)[GlcNAc(b1-6)]Gal(b1-4)GlcNAc
Outline: as §1

[21] = target: Gal(b1-4)GlcNAc(b1-6)Gal(b1-4)GlcNAc
Outline: as §1

[22] = target: Gal(b1-4)GlcNAc(b1-6)GalNAc
Outline: as §1

[23] = target: Gal(b1-4)GlcNAc(b1-6)[Gal(b1-3)]GalNAc
Outline: as §1

[24] = target: Gal3S(b1-3)GalNAc
Outline: as §1

[25] = target: Gal3S(b1-3)GlcNAc
Outline: as §1

[26] = target: Gal3S(b1-3)[Fuc(a1-4)]GlcNAc
Outline: as §1

[27] = target: Gal3S(b1-4)Glc
Outline: as §1

[28] = target: Gal3S(b1-4)Glc6S
Outline: as §1

[29] = target: Gal3S(b1-4)GlcNAc
Outline: as §1

[30] = target: Gal3S(b1-4)GlcNAc6S
Outline: as §1

[31] = target: Gal3S(b1-4)[Fuc(a1-3)]Glc
Outline: as §1

[32] = target: Gal3S(b1-4)[Fuc(a1-3)]Glc6S
Outline: as §1

[33] = target: Gal3S4S(b1-4)GlcNAc
Outline: as §1

[34] = target: Gal3S6S(b1-4)GlcNAc
Outline: as §1

[35] = target: Gal3S6S(b1-4)GlcNAc6S
Outline: as §1

[36] = target: Gal4S(b1-4)GlcNAc
Outline: as §1

[37] = target: Gal4S6S(b1-4)GlcNAc
Outline: as §1

B1: SLP (Clostridium difficile), Q183M8 (protein)
chain: MATTGTQGYTVVKNDWKKAVKQLQDGLKDNSIGKITVSFNDGVVGEVAPKSANKKADRDAAAEKLYNLVNTQLDKLGDGDYVDFSVDYNLENKIITNQADAEAIVTKLNSLNEKTLIDIATKDTFGMVSKTQDSEGKNVAATKALKVKDVATFGLKSGGSEDTGYVVEMKAGAVEDKYGKVGDSTAGIAINLPSTGLEYAGKGTTIDFNKTLKVDVTGGSTPSAVAVSGFVTKDDTDLAKSGTINVRVINAKEESIDIDASSYTSAENLAKRYVFDPDEISEAYKAIVALQNDGIESNLVQLVNGKYQVIFYPEGKRLETKSLEHHHHHH
glycan array binding signal (z-score) [1]: -0.14 | glycan array binding signal (z-score) [2]: -0.163 | glycan array binding signal (z-score) [3]: -0.173 | glycan array binding signal (z-score) [4]: -0.144 | glycan array binding signal (z-score) [5]: -0.087 | glycan array binding signal (z-score) [6]: -0.159 | glycan array binding signal (z-score) [7]: -0.174 | glycan array binding signal (z-score) [8]: -0.176 | glycan array binding signal (z-score) [9]: -0.196 | glycan array binding signal (z-score) [10]: -0.145 | glycan array binding signal (z-score) [11]: -0.173 | glycan array binding signal (z-score) [12]: -0.091 | glycan array binding signal (z-score) [13]: 2.4 | glycan array binding signal (z-score) [14]: -0.205 | glycan array binding signal (z-score) [15]: -0.192 | glycan array binding signal (z-score) [16]: -0.185 | glycan array binding signal (z-score) [17]: -0.188 | glycan array binding signal (z-score) [18]: -0.203 | glycan array binding signal (z-score) [19]: -0.146 | glycan array binding signal (z-score) [20]: -0.209 | glycan array binding signal (z-score) [21]: -0.185 | glycan array binding signal (z-score) [22]: -0.185 | glycan array binding signal (z-score) [23]: -0.171 | glycan array binding signal (z-score) [24]: -0.183 | glycan array binding signal (z-score) [25]: -0.137 | glycan array binding signal (z-score) [26]: -0.132 | glycan array binding signal (z-score) [27]: -0.171 | glycan array binding signal (z-score) [28]: -0.12 | glycan array binding signal (z-score) [29]: -0.178 | glycan array binding signal (z-score) [30]: -0.155 | glycan array binding signal (z-score) [31]: -0.095 | glycan array binding signal (z-score) [32]: 0.027 | glycan array binding signal (z-score) [33]: -0.171 | glycan array binding signal (z-score) [34]: -0.152 | glycan array binding signal (z-score) [35]: -0.126 | glycan array binding signal (z-score) [36]: -0.188 | glycan array binding signal (z-score) [37]: -0.08
